Source: PMC8826421, “Differential activation mechanisms of lipid GPCRs by lysophosphatidic acid and sphingosine 1-phosphate” (Nature Communications, 2022)

Columns and labels:
[1] = molecular target: T1, full-length rat Gαi dominant negative (G203A) (rat, UniProt P10824, G203A); assay: cryo-EM structure; purified S1P1, Gαi and Gβ1γ2 mixed 1:1.5:1.5 in 10 mM HEPES pH 7.0, 100 mM NaCl, 0.05% MNG, 0.01% glycerol, 0.1 mM TCEP, 0.4 U apyrase, 2 mM MgCl2, with 10 µM S1P, 4 °C overnight; Superdex 200 with 1 µM agonist; single-particle cryo-EM; details: both partners purified
T1 construct: The methods say only Gαi; also called Gαi1; source: E. coli BL21 (DE3), purified (Ni-NTA, Superdex 200), in buffers with 10 µM GDP

[2] = molecular target: T1, full-length rat Gαi dominant negative …; assay: cryo-EM structure; purified LPA1, Gαi and Gβ1γ2 mixed 1:1.5:1.5 in 10 mM HEPES pH 7.0, 100 mM NaCl, 0.05% MNG, 0.01% glycerol, 0.1 mM TCEP, 0.4 U apyrase, 2 mM MgCl2, with 10 µM LPA, 4 °C overnight; Superdex 200 with 1 µM agonist; single-particle cryo-EM (consensus, state a and state a' from 3DVA clustering); details: both partners purified

Row | Binder | binding result [1] | binding result [2]
1 | human S1P receptor 1 (S1P1), residues 2-347 (receptor, UniProt P21453 2-347, looked up, glycosylation on the cap segment (residue not given), human sphingosine 1-phosphate receptor 1 (S1P1), residues 2-347; A remnant of the PreScission site is left at the C-terminus after the cut; also called sphingosine 1-phosphate receptor 1; source: Sf9 insect cells, purified (GFP nanobody beads, PreScission cut, Superdex 200); not shown: eGFP, C-terminal, cleaved; 8xHis, C-terminal, cleaved) GPTSVPLVKAHRSSVSDYVNYDIIVRHYNYTGKLNISADKENSIKLTSVVFILICCFIILENIFVLLTIWKTKKFHRPMYYFIGNLALSDLLAGVAYTANLLLSGATTYKLTPAQWFLREGSMFVALSASVFSLLAIAIERYITMLKMKLHNGSNNFRLFLLISACWVISLILGGLPIMGWNCISALSSCSTVLPLYHKHYILFCTTVFTLLLLSIVILYCRIYSLVRTRSRRLTFRKNISKASRSSEKSLALLKTVIIVLSVFIACWAPLFILLLLDVGCKVKTCDILFRAEYFLVLAVLNSGTNPIIYTLTNKEMRRAFIRIMSCCKCPSGDSAGKFKRPIIAG | binds | –
2 | human LPA receptor 1 (LPA1), residues 2-340 (receptor, UniProt Q92633 2-340, looked up, human lysophosphatidic acid receptor 1 (LPA1), residues 2-340; A remnant of the PreScission site is left at the C-terminus after the cut; also called lysophosphatidic acid receptor 1; source: Sf9 insect cells, purified (GFP nanobody beads, PreScission cut, Superdex 200); not shown: eGFP, C-terminal, cleaved; 8xHis, C-terminal, cleaved) AAISTSIPVISQPQFTAMNEPQCFYNESIAFFYNRSGKHLATEWNTVSKLVMGLGITVCIFIMLANLLVMVAIYVNRRFHFPIYYLMANLAAADFFAGLAYFYLMFNTGPNTRRLTVSTWLLRQGLIDTSLTASVANLLAIAIERHITVFRMQLHTRMSNRRVVVVIVVIWTMAIVMGAIPSVGWNCICDIENCSNMAPLYSDSYLVFWAIFNLVTFVVMVVLYAHIFGYVRQRTMRMSRHSSGPRRNRDTMMSLLKTVVIVLGAFIICWTPGLVLLLLDVCCPQCDVLAYEKFFLLLAEFNSAMNPIIYSYRDKEMSATFRQILCCQRSENPTGPTEG | – | binds
